The values below come from paper PMC9574860, “Chemical Toolkit for PARK7: Potent, Selective, and High-Throughput” (Journal of Medicinal Chemistry, 2022).

Among all 7,900 compounds or so, about 400 (5.1%) showed an effect of 50% or more. The list shows a part of the results. Non-standard residues stand in square brackets, D forms with d. Residues, ends and D or L forms follow the SMILES beside them. ξ: configuration not given here. *: point of attachment. Acryloyl = C=CC(=O)*; ξP = O=C(O)C1CCCN1

Parkinson's disease protein 7 (PARK7/DJ1), sequence (Q99497 whole entry, looked up, the tested form may be a part): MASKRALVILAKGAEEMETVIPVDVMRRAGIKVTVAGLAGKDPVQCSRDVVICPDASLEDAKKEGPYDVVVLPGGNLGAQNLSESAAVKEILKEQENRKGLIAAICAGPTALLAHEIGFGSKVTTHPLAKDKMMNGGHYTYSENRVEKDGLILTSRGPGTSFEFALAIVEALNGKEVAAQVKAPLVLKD

For this test, the target named is Parkinson's disease protein 7 (PARK7/DJ1) (human, UniProt Q99497). Briefly: primary screen, percent inhibition; read as competition with a fluorescent probe by fluorescence polarization; higher = more effect of the substance. The conditions noted are these: 100 µM. The method, boiled down:
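Fluorescence-polarization probe displacement (JYQ-107, 20 nM final, 2 h) after 2 h preincubation of PARK7 (0.2 μM final) with each fragment at 100 μM final. Read-out ex/em 480/520 nm; remaining activity derived from FP signal loss relative to reference controls.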
Regarding `CC(C)[C@@H]1N[C@H]1c1ccccc1` (racemic), the Inhibition % was determined as 1.24%.
The figure for `O=S1(=O)C=CC(Nc2cccc(Cl)c2)C1` (stereo not shown) is 12.4%; for `CN1CCCN(c2ccc(C#N)nc2)CC1` it is 14.2%.
Then `CC1(C(=O)Nc2cccc(S(=O)(=O)F)c2)CCOCC1`, with 83.4%.
For the molecule `C=CC(=O)N1CCC1Cc1ccccc1` (stereo not shown), the Inhibition % stood at 4.58%.
Regarding `O=C(Oc1ccc(Cl)cc1)N1CCOCC1`, the Inhibition % worked out at 5.25%.
The figure for `C=CC(=O)N1CCN(C(c2ccccc2)C(F)(F)F)CC1` (stereo not shown) is 9.48%; for `N#Cc1ccc(N2CCN(C(=O)C(F)F)CC2)cn1` it is 3.45%; for `CCc1noc(CC)c1CNCc1cccc(B(O)O)c1` it is 10.2%.
As to `C=CC(=O)N1CCCC(C(=O)Nc2nc(C)cs2)C1` (stereo not shown), the Inhibition % stood at 5.32%.
As to `CCOc1ccncc1S(=O)(=O)Oc1cccc(F)c1`, the Inhibition % is 58.4%.
Then `O=C(CCl)NCC1CCCCC1`, with 13.2%; and `Cc1nn(C)c(N)c1SC#N`, with -3.41%.
Regarding `O=C(O)Cc1ccc(CS)cc1`, the Inhibition % amounted to 58.7%.
Then `CC1(C)OB(Cc2cccc(F)c2)OC1(C)C`, with 6.15%; and `O=C(CCl)N(Cc1ccccc1)Cc1ccco1`, with 12.3%.
Then `C=CC(=O)Nc1nccn1Cc1ccccc1F`, with 11.5%.
Then `O=C(c1ccccc1)N1CCCC(CS(=O)(=O)F)C1` (stereo not shown), with 71.4%; and `O=C(O)CNC(=O)C12CC3CC(CC(Cl)(C3)C1)C2`, with 7.56%.
In the case of `N#Cc1cccc(N2CC(C(F)(F)F)C2)n1`, the Inhibition % is recorded as 9.07%.
Then `O=S(=O)(c1ccc(F)cc1)n1nnc2ccccc21`, with 9.15%; and `CNC1CCCN(C(=O)C=Cc2cncc(F)c2)C1` (stereo not shown), with 29.3%; and `CC1(C)OB(C=C2CCS(=O)(=O)CC2)OC1(C)C`, with -3.41%.
With `Cc1cc(C(=O)CCl)c(C)n1C1CC1`, the Inhibition % is reported as 65%.
As to `N#Cc1ncn(CC(=O)c2ccc(Cl)s2)n1`, the Inhibition % is given as 3.91%.
As for `CCOC1CCCN(c2nc3ccccn3c2C#N)C1` (stereo not shown), the Inhibition % came to 0.705%.
Take `N#Cc1cnc(Cl)cn1`: the Inhibition % came to 6.47%.
With `Clc1csc(C2OCCO2)n1`, the Inhibition % is -0.564%.
The figure for `O=C(CCl)c1c[nH]c2ccccc12` is 37.9%; for `CCOc1cc(S(=O)(=O)n2ccc(C)n2)c(C)cc1C` it is 5.8%; for `CC(C)CN1CCN(c2ccc(C#N)nc2)C(C)C1=O` (stereo not shown) it is 5.84%.
On to `C=CC(=O)N1CCOC(c2cccc(F)c2)C1` (stereo not shown), for which the Inhibition % was determined as 4.38%.
The figure for `C=CC(=O)N1CCC(c2nc(C(F)(F)F)c[nH]2)CC1` is 0.0839%; for `C=CC(=O)NCC(=O)N1CCCC1C(=O)NC` (stereo not shown) (Acryloyl-Gly-[ξP]-NHMe) it is 9.62%; for `O=C(NCC1CCCC1)N1CCCCC1C1OCCO1` (stereo not shown) it is 5.42%.
As to `CCCc1nc(C#N)c(NCc2cccnc2)o1`, the Inhibition % was 7.03%.
The figure for `C=CC(=O)NC1CCN(Cc2ccc(Cl)cc2)CC1` is 9.09%.
Then `CC1(C)C(=O)NC1C1CCCO1` (stereo not shown), with 2.01%; and `Cc1ccc(C=CS(=O)(=O)N(C)Cc2cscn2)cc1`, with 5.66%; and `C=CC(=O)NC1CCCN2CCCCC12` (stereo not shown), with 35.3%.
The figure for `C=CC(=O)N(C)CC(=O)Nc1cc2c([nH]c1=O)CCCC2` is 22.7%; for `CC1(C)OB(c2ccc3ccc(=O)[nH]c3c2)OC1(C)C` it is 4.19%.
Regarding `CC1(C)OB(c2cccc(S(C)(=O)=O)c2)OC1(C)C`, the Inhibition % is on record as 6.06%.
Regarding `NC1CCN(C(=O)C=Cc2cncc(F)c2)C1` (stereo not shown), the Inhibition % is 4.49%.
The figure for `Cc1cnn(CC2CCCN2C2CC(C)OC2=O)c1` (stereo not shown) is 4.2%.
Then `CC(C)n1c(S)nc2ccccc2c1=O`, with 6.34%; and `Cc1ccc(-c2csc(NC(=O)CCl)n2)cc1`, with 11%.
`COc1ccc2c(c1)CCCN2C(=O)CN1CCSC1=O`: the Inhibition % turned out to be 2.74%.
As to `CC1CC(Sc2ncc(-c3ccccc3)n2C)C(=O)O1` (stereo not shown), the Inhibition % was 3.52%.
As to `CN(C(=O)CC1OCCCO1)C1CCCCC1`, the Inhibition % is reported as 3.82%.
`O=C1CC(CC(=O)N2CCC3(CCCC3)CC2)CO1` (stereo not shown): the Inhibition % is reported as -0.128%.
Then `Cc1nc(CCNC(=O)c2cccnc2S)sc1C`, with 2.24%; and `O=c1c2cccnc2nc(S)n1CC1CCCO1` (stereo not shown), with 3.76%.
Then `Cc1[nH]c2ccccc2c1C(=O)CCl`, with 6.53%; and `COc1ccc(C#N)nn1`, with 6.61%; and `O=C(O)CCc1ccc(S(=O)(=O)F)cc1`, with 82.3%.
The figure for `CC(=O)Nc1c(C)cc(C)c(C(=O)CCl)c1C` is 14%; for `C#CC(=O)c1cccc(C(F)(F)F)c1` it is 8.24%.
Regarding `C=CC(=O)NC1CC2(C1)CC2(F)F` (stereo not shown), the Inhibition % was determined as 6.68%.
As for `C=CC(=O)NC1CC(=O)N(CC)C1` (stereo not shown), the Inhibition % stood at 8.72%.
Then `O=C(C=Cc1nc2ccccc2s1)N1CCOCC1`, with -0.634%; and `O=C(CCl)N1CCc2ccccc21`, with -0.66%; and `Cc1ccccc1CN(C)C(=O)CCl`, with 56.6%.
Consider `C=CC(=O)NC1CC(F)(F)C1`, for which the Inhibition % is given as 3.5%.
In the case of `O=C(CCl)c1c[nH]c2nccc(Cl)c12`, the Inhibition % was 2.3%.
For `O=C(CCl)Nc1ccc(Br)cc1C(=O)O`, the Inhibition % is recorded as 46.1%.
Turning to `CN(C(=O)CCl)C1CC1`, the Inhibition % is -0.367%.
The figure for `COCC(=O)Nc1ccc(S(=O)(=O)F)cc1` is 13.6%; for `CC(c1ccc(Cl)cc1)N(C)C(=O)CCl` (stereo not shown) it is 98%; for `N#CN(Cc1ccon1)c1ccc(F)c(Cl)c1` it is 6.11%.
Then `C=CC(=O)N(C)CC1=CCCOC1`, with 1.26%; and `C=CC(=O)N(C)C1CCCc2nc(C)sc21` (stereo not shown), with 7.33%.
On to `C=CC(=O)N1CC(C)OC2(CCOC2C)C1` (stereo not shown), for which the Inhibition % is on record as 5.89%.
In the case of `CC1(C)OB(c2ccccc2Br)OC1(C)C`, the Inhibition % came to 4.04%.
On to `C=CC(=O)NC1CCc2c(Cl)cccc21` (stereo not shown), for which the Inhibition % turned out to be 0.654%.
In the case of `C=CC(=O)N1CCN(C)C(c2nc(C3CC3)no2)C1` (stereo not shown), the Inhibition % worked out at 13%.
Then `C=CC(=O)N1CC(OC(C)(C)C)C1`, with 11.1%.
For the molecule `Cc1ccc(-n2c(C)nnc2SC2CCOC2=O)cc1` (stereo not shown), the Inhibition % was 10.6%.
Then `C=CC(=O)NC(C)c1csnn1` (stereo not shown), with 10%; and `OB(O)c1cccc(COC2CCOC2)c1` (stereo not shown), with 1.29%.
Then `Cc1n[nH]cc1Nc1ccc(Cl)c(C#N)n1`, with 12.8%.
Then `CCc1ccccc1N(C(C)=O)C1C=CS(=O)(=O)C1` (stereo not shown), with 7.9%; and `C=CS(=O)(=O)c1ccccc1`, with 9.43%; and `N#CN(CC(=O)NCC(F)(F)F)c1ccccc1`, with 3.12%.
For `O=C1CCC(=O)N1Cc1cn(-c2ccc(F)c(Cl)c2)nn1`, the Inhibition % is 9%.
Then `Cc1cccc(C)c1NC(=O)N[C@@H]1COC(=O)C1`, with 7.98%; and `O=C(NCC(O)c1ccncc1)c1cccnc1S` (stereo not shown), with 14.1%.
For the molecule `CC(=O)Nc1ccc(OC(=O)N(C)c2ccccc2)cc1`, the Inhibition % was found to be 9.43%.
Then `OB(O)c1ccc(OC2CCCCC2)cc1`, with 2.79%; and `O=C1CN(C(=O)C=Cc2cnc3ccccc3n2)CCN1`, with 10.9%; and `O=C(C1CCOCC1)N1CCC(S(=O)(=O)F)CC1`, with 30.7%.
